The list shows a part of the results.
How the values were obtained:
Assay in all cases: glycan array binding signal (z-score within array); higher = stronger binding
Conditions in all cases: glycan notation: IUPAC condensed, linker removed
[1] = target: GlcNAc(b1-2)[GlcNAc(b1-6)]Man(a1-6)[GlcNAc(b1-2)Man(a1-3)][GlcNAc(b1-4)]Man(b1-4)GlcNAc(b1-4)GlcNAc
Procedure, shortened: (§1)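 The binding signal is a Z-score computed within each array and averaged over linkers. Arrays of the same protein sequence at different concentrations or buffers were also averaged together. Data originate from 3228 arrays in the Consortium for Functional Glycomics database, kept only where the protein sequence was available.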

GlcNAc(b1-3)Gal = target: GlcNAc(b1-3)Gal
Procedure, shortened: as §1

[2] = target: GlcNAc(b1-3)Gal(b1-3)GalNAc
Procedure, shortened: as §1

GlcNAc(b1-3)Gal(b1-4)Glc = target: GlcNAc(b1-3)Gal(b1-4)Glc
Procedure, shortened: as §1

[3] = target: GlcNAc(b1-3)Gal(b1-4)GlcNAc
Procedure, shortened: as §1

[4] = target: GlcNAc(b1-3)Gal(b1-4)GlcNAc(b1-3)Gal(b1-4)GlcNAc
Procedure, shortened: as §1

GlcNAc(b1-3)GalNAc = target: GlcNAc(b1-3)GalNAc
Procedure, shortened: as §1

GlcNAc(b1-3)Man = target: GlcNAc(b1-3)Man
Procedure, shortened: as §1

[5] = target: GlcNAc(b1-3)[GlcNAc(b1-4)][GlcNAc(b1-6)]GlcNAc
Procedure, shortened: as §1

[6] = target: GlcNAc(b1-3)[GlcNAc(b1-6)]Gal(b1-4)GlcNAc
Procedure, shortened: as §1

[7] = target: GlcNAc(b1-3)[GlcNAc(b1-6)]GalNAc
Procedure, shortened: as §1

[8] = target: GlcNAc(b1-3)[GlcNAc(b1-6)]GlcNAc(b1-4)GlcNAc
Procedure, shortened: as §1

[9] = target: GlcNAc(b1-4)Gal(b1-4)GlcNAc
Procedure, shortened: as §1

GlcNAc(b1-4)GlcNAc = target: GlcNAc(b1-4)GlcNAc
Procedure, shortened: as §1

[10] = target: GlcNAc(b1-4)GlcNAc(b1-4)GlcNAc
Procedure, shortened: as §1

[11] = target: GlcNAc(b1-4)GlcNAc(b1-4)GlcNAc(b1-4)GlcNAc(b1-4)GlcNAc
Procedure, shortened: as §1

[12] = target: GlcNAc(b1-4)GlcNAc(b1-4)GlcNAc(b1-4)GlcNAc(b1-4)GlcNAc(b1-4)GlcNAc
Procedure, shortened: as §1

[13] = target: GlcNAc(b1-4)[GlcNAc(b1-6)]GalNAc
Procedure, shortened: as §1

[14] = target: GlcNAc(b1-6)Gal(b1-4)GlcNAc
Procedure, shortened: as §1

GlcNAc(b1-6)GalNAc = target: GlcNAc(b1-6)GalNAc
Procedure, shortened: as §1

GlcNAc3Prop(b1-4)GlcNAc = target: GlcNAc3Prop(b1-4)GlcNAc
Procedure, shortened: as §1

[15] = target: GlcNAc6S(b1-3)Gal(b1-4)GlcNAc
Procedure, shortened: as §1

Kdn(a2-3)Gal(b1-3)GalNAc = target: Kdn(a2-3)Gal(b1-3)GalNAc
Procedure, shortened: as §1

Kdn(a2-3)Gal(b1-3)GlcNAc = target: Kdn(a2-3)Gal(b1-3)GlcNAc
Procedure, shortened: as §1

Kdn(a2-3)Gal(b1-4)Glc = target: Kdn(a2-3)Gal(b1-4)Glc
Procedure, shortened: as §1

Kdn(a2-3)Gal(b1-4)GlcNAc = target: Kdn(a2-3)Gal(b1-4)GlcNAc
Procedure, shortened: as §1

[16] = target: Kdn(a2-3)Gal(b1-4)[Fuc(a1-3)]GlcNAc
Procedure, shortened: as §1

Kdn(a2-6)Gal(b1-4)GlcNAc = target: Kdn(a2-6)Gal(b1-4)GlcNAc
Procedure, shortened: as §1

[17] = target: Man(a1-2)Man(a1-2)Man(a1-3)Man
Procedure, shortened: as §1

[18] = target: Man(a1-2)Man(a1-2)Man(a1-6)[Man(a1-3)]Man
Procedure, shortened: as §1

Man(a1-2)Man(a1-3)Man = target: Man(a1-2)Man(a1-3)Man
Procedure, shortened: as §1

[19] = target: Man(a1-2)Man(a1-3)[Man(a1-2)Man(a1-6)]Man
Procedure, shortened: as §1

[20] = target: Man(a1-2)Man(a1-3)[Man(a1-2)Man(a1-6)]Man(a1-6)[Man(a1-2)Man(a1-2)Man(a1-3)]Man
Procedure, shortened: as §1

[21] = target: Man(a1-2)Man(a1-3)[Man(a1-2)Man(a1-6)]Man(a1-6)[Man(a1-2)Man(a1-2)Man(a1-3)]Man(b1-4)GlcNAc(b1-4)GlcNAc
Procedure, shortened: as §1

[22] = target: Man(a1-2)Man(a1-3)[Man(a1-2)Man(a1-6)]Man(a1-6)[Man(a1-3)[Man(a1-6)]Man(a1-6)]Man(b1-4)GlcNAc(b1-4)GlcNAc
Procedure, shortened: as §1

B1: ConA (Canavalia ensiformis), P02866 (protein)
chain: MAISKKSSLFLPIFTFITMFLMVVNKVSSSTHETNALHFMFNQFSKDQKDLILQGDATTGTDGNLELTRVSSNGSPQGSSVGRALFYAPVHIWESSAVVASFEATFTFLIKSPDSHPADGIAFFISNIDSSIPSGSTGRLLGLFPDANVIRNSTTIDFNAAYNADTIVAVELDTYPNTDIGDPSYPHIGIDIKSVRSKKTAKWNMQNGKVGTAHIIYNSVDKRLSAVVSYPNADSATVSYDVDLDNVLPEWVRVGLSASTGLYKETNTILSWSFTSKLKSNEIPDIATVV
With B1 the “glycan array binding signal (z-score)” value [1] was -0.159, the “glycan array binding signal (z-score)” value (GlcNAc(b1-3)Gal) was -0.268 and the “glycan array binding signal (z-score)” value [2] was -0.256. For the same binder, the “glycan array binding signal (z-score)” value (GlcNAc(b1-3)Gal(b1-4)Glc) was -0.273, the “glycan array binding signal (z-score)” value [3] was -0.266 and the “glycan array binding signal (z-score)” value [4] was -0.275. For the same binder, the “glycan array binding signal (z-score)” value (GlcNAc(b1-3)GalNAc) was -0.295, the “glycan array binding signal (z-score)” value (GlcNAc(b1-3)Man) was -0.263 and the “glycan array binding signal (z-score)” value [5] was -0.216. For the same binder, the “glycan array binding signal (z-score)” value [6] was -0.282, the “glycan array binding signal (z-score)” value [7] was -0.267 and the “glycan array binding signal (z-score)” value [8] was -0.317. For the same binder, the “glycan array binding signal (z-score)” value [9] was -0.273, the “glycan array binding signal (z-score)” value (GlcNAc(b1-4)GlcNAc) was -0.176 and the “glycan array binding signal (z-score)” value [10] was -0.158. For the same binder, the “glycan array binding signal (z-score)” value [11] was -0.264, the “glycan array binding signal (z-score)” value [12] was -0.227 and the “glycan array binding signal (z-score)” value [13] was -0.264. The “glycan array binding signal (z-score)” value [14] was -0.291, the “glycan array binding signal (z-score)” value (GlcNAc(b1-6)GalNAc) was -0.244 and the “glycan array binding signal (z-score)” value (GlcNAc3Prop(b1-4)GlcNAc) was -0.246. For the same binder, the “glycan array binding signal (z-score)” value [15] was -0.088, the “glycan array binding signal (z-score)” value (Kdn(a2-3)Gal(b1-3)GalNAc) was -0.241 and the “glycan array binding signal (z-score)” value (Kdn(a2-3)Gal(b1-3)GlcNAc) was -0.271. The “glycan array binding signal (z-score)” value (Kdn(a2-3)Gal(b1-4)Glc) was -0.278, the “glycan array binding signal (z-score)” value (Kdn(a2-3)Gal(b1-4)GlcNAc) was -0.242 and the “glycan array binding signal (z-score)” value [16] was -0.189. The “glycan array binding signal (z-score)” value (Kdn(a2-6)Gal(b1-4)GlcNAc) was -0.265, the “glycan array binding signal (z-score)” value [17] was 3.26 and the “glycan array binding signal (z-score)” value [18] was 4.9. The “glycan array binding signal (z-score)” value (Man(a1-2)Man(a1-3)Man) was 3.52, the “glycan array binding signal (z-score)” value [19] was 3.94 and the “glycan array binding signal (z-score)” value [20] was 7.48. For the same binder, the “glycan array binding signal (z-score)” value [21] was 3.33 and the “glycan array binding signal (z-score)” value [22] was 3.78.

Source: the supplement of paper PMC8728848
